Results as given in article doi:10.1101/308353 (bioRxiv, 2018).

Molecular target: Cy3 conjugated G-actin (UniProt P68135, Cy3 conjugated)
Experiment: single molecule TIRF microscopy

B1: GFP-βRat CaMKII holoenzyme (enzyme)
chain: MATTVTCTRFTDEYQLYEDIGKGAFSVVRRCVKLCTGHEYAAKIINTKKLSARDHQKLEREARICRLLKHSNIVRLHDSISEEGFHYLVFDLVTGGELFEDIVAREYYSEADASHCIQQILEAVLHCHQMGVVHRDLKPENLLLASKCKGAAVKLADFGLAIEVQGDQQAWFGFAGTPGYLSPEVLRKEAYGKPVDIWACGVILYILLVGYPPFWDEDQHKLYQQIKAGAYDFPSPEWDTVTPEAKNLINQMLTINPAKRITAHEALKHPWVCQRSTVASMMHRQETVECLKK[here about 20 residues without letters]VGRQTTAPATMSTAASGTTMGLVEQAKSLLNKKADGVKPQTNSTKNSSAITSPKGSLPPAALEPQTTVIHNPVDGIKESSDSTNTTIEDEDAKARKQEIIKTTEQLIEAVNNGDFEAYAKICDPGLTSFEPEALGNLVEGMDFHRFYFENLLAKNSKPIHTTILNPHVHVIGEDAACIAYIRLTQYIDGQGRPRTSQSEETRVWHRPDGKWQNVHFHCSGAPVAPLQ
koff: 2.55 s⁻¹
